In all, about 420,000 compounds went through this assay and about 64,000 (15%) were called active. The inconclusive results got no clear call from the source; some entries with a clear call stand among them for comparison. Calls come from the whole dose curve; as a rule, active = well fitted inhibition curve with a large enough effect; inconclusive = small, poorly fitted or top-dose-only effect; inactive = flat fitted curve, though single readings scatter. Potencies of inconclusive entries are left out as doubtful fits.
Experiment: qHTS for Inhibitors of human tyrosyl-DNA phosphodiesterase 1 (TDP1): qHTS in cells in absence of CPT; note: nearly all actives have a fitted effect of over 55% in size
Conditions: DT40 Tdp1-/- hTDP1 cells, no CPT, ATP luminescence, 48 h; activity change, negative = growth inhibition: at 46.2 µM (top of the series) unless noted
Method in brief: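 Camptothecin absent (DMSO only). Human TDP1-complemented DT40 knockout cells, 400 cells/well, 37 °C for minimum 48 hr; ATP measured via CellTiter-Glo, 30 min dark incubation, luminescence.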
For `O=C(N/C(=C/c1ccc(F)cc1)C(=O)N1CCCC1)c1ccccc1`, the “activity change, negative = growth inhibition” value was inactive: -15.2%.
With `CC(C)(C)C1CCC(NC(=O)c2cnn3c2NC(=C2CC2)C=C3C(F)F)CC1` (stereo not drawn) the Potency was active: 7.94 µM.
With `O=C(c1ccc(C#CC2(O)CCCCC2)cc1)N1CCN(Cc2ccccc2)CC1` the Potency was inconclusive [inhibitor, single point].
In the case of `CCn1nc(C)c(CCN(C)C(=O)Nc2cc(Cl)ccc2C)c1C`, the Potency is reported as inconclusive [inhibitor, full curve].
With `CN(C)CC(C)(C)CNS(=O)(=O)CC12CCC(CC1=O)C2(C)C` (stereo not drawn) the “activity change, negative = growth inhibition” value was inactive: -20.4%.
With `CCc1ccccc1NC1=NCC(=O)N1C1CCCCC1` the “activity change, negative = growth inhibition” value was inactive: -28.9%.
For `CC1CC(C)CN(CCCNC(=O)Cn2ncc3c(=O)oc4ccccc4c32)C1` (stereo not drawn), the “activity change, negative = growth inhibition” value was inactive: -7.02%.
In the case of `CC[C@]12c3[nH]c4cc(-c5ccco5)ccc4c3CCN1C(=O)[C@@H](CC(=O)NCc1ccco1)C[C@@H]2C(=O)N1CCN(C(=O)C2CC2)CC1`, the Potency is reported as active: 16.4 µM.
For `Cc1c(Cl)cccc1NC(=O)Nc1ccn(C)n1`, the “activity change, negative = growth inhibition” value was inactive: -16.3%.
In the case of `COc1cc(OC)c(OC)cc1CN1CCCC(C(=O)c2sccc2C)C1` (stereo not drawn), the Potency is reported as inconclusive [inhibitor, single point].
In the case of `CCCCN(C)c1c(C)nc2ccc(C(=O)N(C)Cc3ccco3)cn12`, the Potency is reported as active: 18.4 µM.
In the case of `NC(=S)N=Nc1c(O)[nH]c2cc(F)c(F)cc12`, the Potency is reported as inconclusive [inhibitor, single point].
With `CCOc1cc(CNn2cnnc2SCC(=O)NC(C)(C)C)ccc1OCC(=O)NC(C)(C)C` the Potency was active: 18.4 µM.
In the case of `Cc1c(O)ccc2c(CN3CCN(C/C=C/c4ccccc4)CC3)cc(=O)oc12`, the Potency is reported as inconclusive [inhibitor, single point].
For `Cc1ccc(CNC(=O)CCS(=O)(=O)c2cc(Br)cc3c2N(C(=O)C2CC2)CC3)cc1`, the Potency was inconclusive [inhibitor, single point].
For `COCCN1C=C(C(=O)OC)C(c2ccc(Cl)cc2)C(C(=O)OC)=C1`, the Potency was inconclusive [inhibitor, single point].
In the case of `CC(CC(=O)NCc1ccco1)S(=O)(=O)c1ccc2c(c1)CCN2C(=O)C1CC1` (stereo not drawn), the Potency is reported as inconclusive [inhibitor, single point].
For `COc1ccccc1-c1ccc(/C=C2\C=CC(=O)O2)o1`, the Potency was inconclusive [inhibitor, single point].
With `Cc1noc(C)c1S(=O)(=O)N1CCC(C(=O)Nc2ccc(OC(F)(F)F)cc2)CC1` the Potency was inconclusive [inhibitor, partial curve].
For `Cc1sc2ncnc(NCC3(N4CCOCC4)CCCCC3)c2c1C`, the Potency was active: 23.1 µM.
With `COCCNc1cc(-c2ccccc2)nc2cc(-c3cccc(F)c3)nn12` the Potency was inconclusive [inhibitor, single point].
In the case of `CCOC(=O)c1sc2nc(-c3ccco3)c3c(c2c1N)CC(C)(C)OC3`, the Potency is reported as active: 20.6 µM.
With `COc1ccc(OCCCC(=O)Nc2cc(S(=O)(=O)N3CCCCC3)ccc2C)cc1` the Potency was inconclusive [inhibitor, single point].
For `CN(C)C(CNC(C(=O)Nc1ccc(F)cc1)c1ccccc1)c1ccccc1` (stereo not drawn), the Potency was inconclusive [inhibitor, single point].
For `Cc1ccc(S(=O)(=O)N(C)C)cc1NC(=O)COC(=O)/C=C/c1ccc2c(c1)OCO2`, the Potency was inconclusive [inhibitor, partial curve].
With `CCCc1noc2c1/C(=N\O)CC(c1ccccc1)C2` (stereo not drawn) the Potency was inconclusive [inhibitor, partial curve].
In the case of `Cc1noc(C)c1S(=O)(=O)Nc1ccc2c(c1)C(=O)N([C@H](C)CO)C[C@H](C)[C@H](CN(C)S(=O)(=O)c1ccc(Cl)cc1)OCCCC[C@@H](C)O2`, the Potency is reported as inconclusive [inhibitor, single point].
With `CC(C)Oc1cccc(C(=O)C2CCCN(C(=O)c3ccc4c(c3)OCO4)C2)c1` (stereo not drawn) the Potency was inconclusive [inhibitor, single point].
For `CS(=O)(=O)c1ccc(C(=O)N(Cc2ccccc2)c2ccccc2)cc1`, the Potency was inconclusive [inhibitor, single point].
With `C[C@H](O)[C@@H]1C(=O)N2CCc3ccc(-c4ccccc4)cc3[C@@H]2C[C@@H]1N(C)C(=O)Nc1cc(Cl)cc(Cl)c1` the “activity change, negative = growth inhibition” value was inactive: -22.9%.
With `CC(C)[C@H](CO)Nc1nc(Nc2cc(N)cc(Cl)c2)c2ncn(C(C)C)c2n1` the Potency was active: 2.99 µM.
With `COc1ccc2c(c1OC)C(=O)N(c1cccc(/C=C/C(=O)O)c1)C2` the “activity change, negative = growth inhibition” value was inactive: 3.88%.
In the case of `O=C(CNC(=O)c1ccccc1)N/N=C/c1ccc([N+](=O)[O-])o1`, the Potency is reported as active: 23.1 µM.
With `Cc1ccc(S(=O)(=O)N2CCN(C(=O)c3cc(C4CC4)nn3-c3ccccc3)CC2)cc1` the Potency was inconclusive [inhibitor, single point].
In the case of `CCOc1cc(CNCC(C)C)c(Cl)cc1OCC(=O)Nc1ccccc1`, the Potency is reported as inconclusive [inhibitor, single point].
With `Cc1ccc(C(=O)NNC(=S)NC(=O)c2ccc(Cl)cc2)cc1` the Potency was inconclusive [inhibitor, single point].
With `COc1ccc(C(C(=O)c2ccccc2)c2ccccc2)cc1` (stereo not drawn) the Potency was inconclusive [inhibitor, single point].
In the case of `Cc1cccc(-n2c(O)c(/C=N/NC(=O)c3ccccc3Cl)c3ccccc3c2=O)n1`, the Potency is reported as inconclusive [inhibitor, single point].
For `COc1ccccc1CCNC(=O)C(=O)NCC(c1ccco1)S(=O)(=O)c1ccc(C)cc1` (stereo not drawn), the Potency was inconclusive [inhibitor, partial curve, poor fit].
In the case of `O=C(COc1cccc(F)c1)NNC(=O)Cc1ccc(S(=O)(=O)N2CCOCC2)s1`, the “activity change, negative = growth inhibition” value is reported as inactive: 23.8%.
In the case of `COc1ccccc1N1CCN(C2CCN(S(=O)(=O)c3ccc(C)cc3)CC2)CC1`, the Potency is reported as inconclusive [inhibitor, partial curve].
For `COc1ccc(/C=C/C(=O)NC(=S)N2CCOCC2)cc1`, the “activity change, negative = growth inhibition” value was inactive: 9.15%.
In the case of `COc1ccc(CCN2C(=O)CSC2c2ccc(F)cc2)cc1` (stereo not drawn), the “activity change, negative = growth inhibition” value is reported as inactive: -21.2%.
In the case of `CCOc1ccc(-c2nnc(NC(=O)COc3ccccc3F)o2)cc1`, the Potency is reported as inconclusive [inhibitor, single point].
With `O=C(NN=C1CCCC1)c1[nH]c2ccc(Cl)cc2c1-c1ccccc1` the Potency was inconclusive [inhibitor, single point].
For `COc1ccccc1CCn1cnc(-c2ccc(OC)c(OC)c2)c1C(C)C`, the Potency was active: 5.8 µM.
For `Cc1cc(/C=C2\C=Cc3ccccc32)cc(C)c1[N+](=O)[O-]`, the Potency was inconclusive [inhibitor, single point].
In the case of `COc1ccccc1CC(=O)N1CCN(C(=O)c2ccco2)CC1`, the “activity change, negative = growth inhibition” value is reported as inactive: 8.98%.
In the case of `Cc1ccc(F)c(S(=O)(=O)NC(=O)C2(C)CCN2C(=O)c2ccc(C3CCCCC3)cc2)c1` (stereo not drawn), the activity change, negative = growth inhibition is reported as inconclusive: -27.2% [inhibitor].
For `COc1ccccc1Nc1cc(C(=O)NCc2cccs2)c2ccccc2n1`, the Potency was inconclusive [inhibitor, single point].
With `CCCOc1cccc(C(=O)Nc2cccc(NC(=O)c3ccco3)c2)c1` the Potency was inconclusive [inhibitor, single point].
For `NC(=O)N1CC(O)CC1C(=O)Nc1ccc(Cl)c(Cl)c1` (stereo not drawn), the Potency was inconclusive [inhibitor, single point].
With `Cc1ccc(NCc2nc3ccccc3n2CCOc2ccccc2)cc1` the Potency was active: 18.4 µM.
For `Cc1cc(NC(=O)Nc2nc3c(s2)CCCCCC3)ccc1Br`, the Potency was active: 18.4 µM.
In the case of `Cc1ccc(Nc2cc(C(=O)NCCCN3CCOCC3)c3ccccc3n2)cc1C`, the Potency is reported as inconclusive [inhibitor, single point].
With `CC[C@@H](C)CN1C(=O)N[C@@H](CCc2ccccc2)C(C(C)=O)=C1C` the “activity change, negative = growth inhibition” value was inactive: -1.49%.
With `CCc1nc(SCC(=O)N2CCC(C)CC2)c2c(=O)n(C)c(=O)n(C)c2n1` the Potency was active: 25.9 µM.
In the case of `COc1ccc(-c2noc(-c3nnn(-c4cc(C)ccc4C)c3N)n2)cc1`, the Potency is reported as inconclusive [inhibitor, partial curve].
With `COc1ccccc1-c1nnc(C2CCN(C(=O)c3ccc(C)cc3)CC2)o1` the Potency was inconclusive [inhibitor, single point].
In the case of `Cc1ccccc1-n1nc2c(c1NC(=O)c1cc3ccccc3oc1=O)CS(=O)C2` (stereo not drawn), the Potency is reported as inconclusive [inhibitor, partial curve].
With `NS(=O)(=O)c1ccc(N/C=C\C(=O)c2ccc(F)cc2)cc1` the activity change, negative = growth inhibition was inconclusive: -31.5% [inhibitor].
In the case of `COCCn1c(=O)c(-c2ccc(F)cc2)nc2cnc(N(C)C)nc21`, the “activity change, negative = growth inhibition” value is reported as inactive: -13.5%.
With `COc1ccc(/C=N/NC(=O)c2ccc(COc3ccccc3Cl)o2)c(OC)c1C` the Potency was inconclusive [inhibitor, single point].
With `CCOC(=O)N1C2=NC(C(=O)OC)=C(C(=O)OC)[C@@H]3N(Cc4ccccc4)c4ccccc4[C@]23C[C@H]1C(=O)OC` the Potency was inconclusive [inhibitor, single point].
For `CCNc1nc(NCC)n2c(SCC(=O)Nc3ccccc3C(F)(F)F)nnc2n1`, the “activity change, negative = growth inhibition” value was inactive: -0.466%.
In the case of `Cc1cccc(-c2nc(S(=O)(=O)c3ccc(F)cc3)c(NCCCN3CCOCC3)o2)c1`, the Potency is reported as inconclusive [inhibitor, single point].
With `NC(=O)CSc1ncc2c(n1)-c1ccccc1N(Cc1cccc(F)c1)S2(=O)=O` the activity change, negative = growth inhibition was inconclusive: -18.8% [inhibitor].
In the case of `Cc1nc(Cl)c(S(N)(=O)=O)c(C)c1Cl`, the “activity change, negative = growth inhibition” value is reported as inactive: 0.528%.
% is set by controls: 0 for no effect and ±100 for the full control effect; potency is the fitted concentration of half-maximal effect; tags give direction and shape of the fitted curve.
